The nature of series [1]: pH solubility screen in Citric Acid / Dibasic Sodium Phosphate buffers. It is filed as physicochemical. The protocol:
pH Solubility. […] Protein was either lyophilized and then resuspended in buffer cocktail mixtures, or concentrated and then spiked into buffer cocktail mixtures at a final protein concentration of 5 to 30 mg/ml. As a control, protein was also dissolved in a solution of 8 M urea. Protein solutions were shaken for 10 min at room temperature. Turbidity of proteins was determined by measuring the absorbance of protein solutions at 650 nm. The protein solution was then centrifuged for 10 min at 1100×g to pellet undissolved or precipitated protein. The soluble protein fraction (supernatant) was sampled and protein concentration was measured by one or more of the following methods: Coomassie Plus Protein Assay (Pierce), Chip electrophoresis, gel electrophoresis, and/or absorbance at 280 nm. The pH range over which select proteins remained greater than 80% soluble as determined by Bradford and the A650 value are listed in Table E31C.

A short description of series [2]: Thermostability, ProteoStat Thermal Shift Stability Kit, temperature of aggregation. It counts as physicochemical. Conditions: NS = protein not soluble. Here is the method: Thermostability. The thermostability of proteins in a buffer cocktail of Citric Acid and Dibasic Sodium Phosphate over a pH range of 2.8 to 7.1 (preparation described above in Table E31B) was determined using the ProteoStat® Thermal Shift Stability Kit (Enzo Life Sciences) according to the manufacturer's standard protocol. Briefly, protein solutions (˜10 mg/ml) containing 1× ProteoStat TS Detection Reagent were heated from 25° C. to 95° C. at a rate of 0.5° C. per 30 sec using a real-time PCR (rtPCR) thermocycler (BioRad) equipped with a plate reader (SynergyMx, Biotek) while monitoring the fluorescence with a Texas Red filter.

Series [3] can be described thus: Intact half-life during simulated gastric fluid (SGF) digestion. The note with it: SGF pH 1.5, pepsin:polypeptide 1:20 w/w, 37° C.; produced in E. coli unless otherwise noted.

The values below come from US20260069656A1, “Nutritive Polypeptides and Formulations Thereof, and Methods of Production and Use Thereof” (Axcella Health Inc., priority 2013, published 2026).

Bounds are passed on as bounds.

B1: SEQID-00103: nutritive polypeptide naturally produced in Rice, recombinantly expressed in E. coli (protein, listed as Oryza sativa)
chain: MEGLTSEQMVAFQEAFLLFDKNGDGCITLEELAAVTRSLGLEPTDQELNDMMREVDTDGNGIIDFQEFLSLIARKMKDGDGDEELKEAFEVLDKDQNGFISPTELRTVMTNLGEKMTDEEVEQMIREADTDGDGQVNYDEFVIMMKNAERKISG
For the molecule B1, the “pH Range where Protein is >80% detected as Soluble and A650 <1 OD: Low” value in series [1] (lower pH of range) worked out at 5.6. The “pH Range where Protein is >80% detected as Soluble and A650 <1 OD: High” value in series [1] (upper pH of range) was 7.1. The “Tagg pH 3.7” value in series [2] (pH 3.7) is listed as 45.5. In series [2] (pH 3.9), the “Tagg pH 3.9” value is given as 41.5. For the same molecule, in series [2] (pH 4.3), the “Tagg pH 4.3” value amounted to 37.5. Also, the “Tagg pH 4.6” value in series [2] (pH 4.6) was 59.5. Also, in series [2] (pH 5.0), the “Tagg pH 5.0” value worked out at 61. Besides, in series [2] (pH 5.6), the “Tagg pH 5.6” value is recorded as 62. Also, in series [2] (pH 6.0), the “Tagg pH 6.0” value was determined as 67.5. Moreover, the “Tagg pH 6.5” value in series [2] (pH 6.5) is reported as 95. Moreover, the “Tagg pH 7.1” value in series [2] (pH 7.1, heated 25° C. to 95° C.) is more than 95. Further, the “SGF Half-life (t½)” value in series [3] is given as 0.3 min.

B2: SEQID-00103 (HEK293): nutritive polypeptide (protein, listed as Oryza sativa)
chain: MEGLTSEQMVAFQEAFLLFDKNGDGCITLEELAAVTRSLGLEPTDQELNDMMREVDTDGNGIIDFQEFLSLIARKMKDGDGDEELKEAFEVLDKDQNGFISPTELRTVMTNLGEKMTDEEVEQMIREADTDGDGQVNYDEFVIMMKNAERKISG
B2: the “SGF Half-life (t½)” value in series [3] is less than 2 min.

B3: SEQID-00105 (BS): nutritive polypeptide (protein, listed as Saccharomyces cerevisiae)
chain: MSSNLTEEQIAEFKEAFALFDKDNNGSISSSELATVMRSLGLSPSEAEVNDLMNEIDVDGNHQIEFSEFLALMSRQLKSNDSEQELLEAFKVFDKNGDGLISAAELKHVLTSIGEKLTDAEVDDMLREVSDGSGEINIQQFAALLSK
Take B3: the “SGF Half-life (t½)” value in series [3] is 0.5 min.

B4: SEQID-00105 (HEK293): nutritive polypeptide (protein, listed as Saccharomyces cerevisiae)
chain: MSSNLTEEQIAEFKEAFALFDKDNNGSISSSELATVMRSLGLSPSEAEVNDLMNEIDVDGNHQIEFSEFLALMSRQLKSNDSEQELLEAFKVFDKNGDGLISAAELKHVLTSIGEKLTDAEVDDMLREVSDGSGEINIQQFAALLSK
As to B4, the “SGF Half-life (t½)” value in series [3] is recorded as less than 2 min.
